Test results reported in PubChem BioAssay AID624171 (National Center for Advancing Translational Sciences (NCATS), 2012).
About 1,200 (0.29%) of roughly 410,000 compounds were called active. Inconclusive means that the source gave no clear call. Such entries were picked first, then a sample of the others. The call rests on the fitted dose curve; in most records, active means well fitted activation curve with a large enough effect; inconclusive means small, poorly fitted or top-dose-only effect; inactive means flat fitted curve, though single readings scatter. Potencies beside an inconclusive call are fits to weak or partial responses and may not hold up.

Assay: qHTS of Nrf2 Activators; further: nearly all actives have a fitted effect of over 65% in size
Conditions: AREc32 ARE-luciferase reporter (MCF7-derived line), luminescence, 24 h; series mostly up to 46.1 µM
How it was run: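 For detection, Steady-Glo was added and plates sat 30 min at RT; before that, AREc32_Fluc cells grown overnight in OPTI-MEM/5% FBS had been treated with 23 nL compound for 24 hr at 37 deg C.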
Potency means the concentration at half of the fitted maximal effect; tags describe the fitted curve by direction and shape.

Potency, inactive:
Cc1noc(NS(=O)(=O)c2ccc(NS(=O)(=O)c3ccc(C(C)(C)C)cc3)cc2)c1C
CC(=O)N1c2ccccc2C(=O)C1N1CCN(c2cc(Cl)ccc2C)CC1 (stereo unspecified)
COc1ccc(CCN2CC(C(=O)N(C)Cc3ccc(C)o3)CCC2=O)cc1 (stereo unspecified)
Cc1cc(C(=O)NC2CCCc3c2cnn3-c2ccc(C(C)(C)C)cc2)nn1C (stereo unspecified)
O=C(NCC1CCN(c2ccc(S(=O)(=O)N3CCOCC3)cc2)CC1)Nc1ccccc1
CCN1CCN(Cc2c(O)ccc3cc(-c4ccc(OC)cc4)c(=O)oc23)CC1
Cc1ccc(NC(=O)Nc2nnc(N(C)C3CCCCC3)s2)c(Cl)c1
COc1ccc(-c2nnn(CC(=O)N(Cc3cccs3)C(C)C(=O)NC3CCCC3)n2)cc1OC (stereo unspecified)
COc1cccc(C(=O)O/N=C/c2ccc(Sc3ccc(C)cc3)nc2)c1
CCc1ccc(NC(=O)Cn2c(=O)n(CCCCC(=O)NCCc3ccccc3)c(=O)c3ccccc32)cc1
O=C(CN1C(=O)NC2(CCc3ccccc32)C1=O)Nc1ccc(Cl)cc1F (stereo unspecified)
Cc1ccc(-c2cc(C(=O)Nc3nccs3)c3ccccc3n2)o1
C=CCN1C(=O)c2ccc(C(=O)OCC(=O)Nc3ccccc3OC)cc2C1=O
Cc1cc(=O)oc2cc(OCC(=O)N3CCOCC3)ccc12
CCCCn1c(=O)n(C)c(=O)c2c3c(sc21)COC(C)(C)C3

Potency, inconclusive:
O=C(/C=C/c1cccs1)c1ccc(Br)cc1 22.4 µM [activator, single point]
CC(NC1=CC(=O)c2cccnc2C1=O)C(O)c1ccccc1 (stereo unspecified) 5.62 µM [activator, single point]
C#CCOCCOCCOCCNc1nc(N2CCOCC2)nc(N2CCN(C(=O)[C@H](Cc3cc4ccccc4[nH]3)n3cc([C@@H](N)CC(C)C)nn3)CC2)n1 20 µM [activator, single point]
CC(/C=C/c1ccco1)=N/NC(=O)Cc1cccs1 22.4 µM [activator, single point]
O=C(Nc1ccc2c(c1)OCO2)C1CCN(Cc2cc3c(cc2O)OCO3)CC1 31.6 µM [activator, single point]
O=C(/C=C/c1ccccc1)N/C(=C\c1ccco1)C(=O)NCCO 31.6 µM [activator, single point]
O=C(c1ccc(Br)s1)N1CCc2ccccc2C1 31.6 µM [activator, single point]
CCOC(=O)c1cc(-c2ccc(/C=C3/C(=O)N(c4ccc(C(=O)O)cc4)N=C3C)o2)ccc1Cl 31.6 µM [activator, single point]
CC(NC(=O)c1ccc([N+](=O)[O-])o1)C12CC3CC(CC(C3)C1)C2 (stereo unspecified) 5.62 µM [activator, single point]
CCOc1cc(/C=C\c2[nH]c(=O)[nH]c(=O)c2[N+](=O)[O-])ccc1OC(C)CC (stereo unspecified) 22.4 µM [activator, single point]
Cn1c(NCc2ccccc2)nc2cc(-c3cccc(C(F)(F)F)c3)sc2c1=O 2.82 µM [activator, partial curve, poor fit]
O=C(CC(Sc1ccc(Br)cc1)C(=O)O)c1ccc(F)cc1 (stereo unspecified) 17.8 µM [activator, partial curve, poor fit]
C=C(C)CNC(=S)N/N=C(\C)c1ccc(Cl)s1 5.62 µM [activator, partial curve]
COc1cc(-c2noc(-c3cccs3)n2)cc(OC)c1OC 3.16 µM [activator, full curve, poor fit]
CN1C2CCC1/C(=C\c1ccc(F)cc1)C(=O)/C2=C/c1ccc(F)cc1 3.16 µM [activator, full curve, poor fit]
COc1ccc(-n2nc3c(c2NC(=O)CCl)CSC3)cc1 20 µM [activator, partial curve, poor fit]
N/C(=N\OC(=O)c1ccoc1)c1ccc(Br)cc1 8.91 µM [activator, partial curve]
Fc1ccc(-c2nc3c4ccccc4ccn3c2Cc2ccsc2)cc1 11.2 µM [activator, partial curve, poor fit]
CS(=O)(=O)c1ccc(C(=O)OC2CCOC2=O)cc1[N+](=O)[O-] (stereo unspecified) 25.1 µM [activator, single point]
O=C(c1ccc(Cl)cc1)C(Cn1cncn1)C(Sc1ccccc1)c1ccccc1 (stereo unspecified) 35.5 µM [activator, partial curve, poor fit]
Cc1cc(CNC(=O)c2cccc([N+](=O)[O-])c2)c2ccccc2n1 6.31 µM [activator, full curve]
Cc1cccc(NC(=O)c2nc(S(=O)(=O)Cc3ccccc3)ncc2Cl)c1 5.62 µM [activator, single point]
Cn1c(=O)n(Cc2ccccc2)c(=O)c2c1nc1n2CCN1Cc1ccco1 4.47 µM [activator, partial curve, poor fit]
Cc1cc([N+](=O)[O-])ccc1Nc1nc2ccccc2n2cnnc12 12.6 µM [activator, partial curve, poor fit]
CCOc1ccc(C(=O)C(CN2CCOCC2)c2ccccc2)cc1 (stereo unspecified) 3.98 µM [activator, partial curve, poor fit]
CCC(C)NC(=O)COC(=O)c1cc([N+](=O)[O-])ccc1Sc1nc(C)cs1 (stereo unspecified) 35.5 µM [activator, partial curve, poor fit]
Cn1c(=O)n(C)c2cc(NC(=O)CCl)ccc21 5.62 µM [activator, single point]
CC1S/C(=N/N=C/c2ccco2)NC1=O (stereo unspecified) 17.8 µM [activator, single point]
COc1ccccc1N1CCN(C(=O)c2coc(=O)c(Br)c2)CC1 22.4 µM [activator, single point]
NS(=O)(=O)c1ccc(CCNC(=O)NC2(C(F)(F)F)Oc3ccccc3O2)cc1 25.1 µM [activator, single point]
c1cncc(-c2nc(NCc3ccco3)c3ccccc3n2)c1 5.62 µM [activator, full curve, poor fit]
CCn1c(COc2ccccc2OC)nc2ccccc21 15.8 µM [activator, single point]
CC[N+]1(C)CCC(O)(c2ccc(OC)cc2)C(C(=O)c2ccc(OC)cc2)C1 (stereo unspecified) 5.62 µM [activator, single point]
COc1ccc(OC(=O)c2cccc([N+](=O)[O-])c2)c(C(=O)/C=C/c2cccs2)c1 22.4 µM [activator, partial curve, poor fit]
O=C(Nc1nnc([C@@H]2C[C@H](O)[C@@H](CO)O2)s1)c1cccc(Cl)c1 12.6 µM [activator, single point]
CN(C(=O)c1ccc2c(Cl)c3c(nc2c1)CCC3)c1ccccc1 17.8 µM [activator, single point]
O=C(/C=C/c1ccccc1)CCN1CCCCC1 5.62 µM [activator, single point]
Cc1c(CCOC(=O)c2cc([N+](=O)[O-])cc([N+](=O)[O-])c2)sc[n+]1CC(=O)c1ccc(Br)cc1 35.5 µM [activator, single point]
NC(=S)Nc1nc2ccccc2s1 12.6 µM [activator, single point]
O=C(N/N=C/c1ccc([N+](=O)[O-])o1)c1ccccc1NS(=O)(=O)c1cccs1 22.4 µM [activator, single point]
Cn1nc(C(=O)NNc2c(F)c(F)cc(F)c2F)c2ccccc2c1=O 25.1 µM [activator, single point]
COc1ccc(F)cc1S(=O)(=O)NCC(c1ccco1)S(=O)(=O)c1ccc(F)cc1 (stereo unspecified) 11.2 µM [activator, single point]
CCC(O)CNC(=O)NC(=C(Cl)Cl)c1ccc(C)c(F)c1 (stereo unspecified) 20 µM [activator, single point]
COc1ccc(C(=O)/C=C/c2ccccc2)c(O)c1 35.5 µM [activator, single point]
FC(F)(F)c1ccccc1Cc1c(-c2ccccc2)nc2c3ccccc3ccn12 7.94 µM [activator, partial curve]
O=C(Nc1nc(-c2cccs2)cs1)c1ccc([N+](=O)[O-])o1 2.82 µM [activator, partial curve, poor fit]

Potency, active:
O=C(/C=C/c1ccc(-c2ccccc2[N+](=O)[O-])o1)c1ccc(Br)cc1 2.51 µM
COc1ccccc1Cc1c(-c2ccco2)nc2cc(C)c(Br)c(C)n12 11.2 µM
O=C(CCCSc1ccc(Cl)cc1)Nc1ccccc1O 14.1 µM
O=c1oc2ccccc2nc1/C=C(O)/C=C/c1ccc(F)cc1 17.8 µM
O=C(Nc1ccc2ccccc2c1[N+](=O)[O-])c1ccccc1 14.1 µM
